Whole data set: some 110,000 compounds, median “z-score” near -0.1, cut for the highest 2% near 2. Some of the results follow. Active and inactive are the calls of the source.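 Rule for the calls: active = z-score in the third read window above 3 or below -3; inactive = the rest.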

The values that follow come from PubChem BioAssay AID488969 (Vanderbilt High Throughput Screening Facility, 2010).

The target in this assay is Metabotropic glutamate receptor 8 (Rattus norvegicus) (UniProt P70579). Kind of assay: rat mGluR8 modulators via GIRK flux, primary screen, cell-based, thallium flux, HTS (AID 488969). Particulars: HEK293 rat mGluR8, GIRK (G protein-gated inwardly rectifying potassium channel) thallium flux, FluoZin2; at 10 µM; stronger effect = higher value; submaximal glutamate (EC20) added with thallium.
Sequence of UniProt P70579 (P70579 whole entry, looked up): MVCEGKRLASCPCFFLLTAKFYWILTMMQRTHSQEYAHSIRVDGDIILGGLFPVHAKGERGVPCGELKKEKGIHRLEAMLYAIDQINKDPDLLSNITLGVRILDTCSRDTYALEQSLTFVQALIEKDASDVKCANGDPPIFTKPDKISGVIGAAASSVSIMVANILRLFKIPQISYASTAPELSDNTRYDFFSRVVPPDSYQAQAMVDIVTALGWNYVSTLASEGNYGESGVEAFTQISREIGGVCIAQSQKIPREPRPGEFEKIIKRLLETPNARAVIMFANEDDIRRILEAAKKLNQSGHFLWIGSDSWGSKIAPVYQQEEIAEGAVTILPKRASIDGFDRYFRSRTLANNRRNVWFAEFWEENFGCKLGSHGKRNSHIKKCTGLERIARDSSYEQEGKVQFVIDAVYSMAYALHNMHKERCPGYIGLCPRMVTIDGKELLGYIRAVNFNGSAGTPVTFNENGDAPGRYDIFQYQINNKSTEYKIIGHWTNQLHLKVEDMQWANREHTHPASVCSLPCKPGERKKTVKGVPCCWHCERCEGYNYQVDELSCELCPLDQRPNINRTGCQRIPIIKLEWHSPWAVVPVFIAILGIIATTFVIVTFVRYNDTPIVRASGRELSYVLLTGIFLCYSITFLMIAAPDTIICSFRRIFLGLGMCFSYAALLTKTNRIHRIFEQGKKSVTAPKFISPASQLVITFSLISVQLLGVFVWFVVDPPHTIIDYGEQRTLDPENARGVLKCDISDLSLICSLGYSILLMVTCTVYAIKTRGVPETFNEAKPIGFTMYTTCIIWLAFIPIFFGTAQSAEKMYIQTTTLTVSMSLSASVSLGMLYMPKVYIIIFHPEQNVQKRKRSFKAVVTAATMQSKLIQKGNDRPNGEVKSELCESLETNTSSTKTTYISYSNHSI
Compound `CCCC(CCC)C(=O)Nc1ccncc1` showed a z-score of 0.135.

As to `Cc1nn(-c2ccccc2)c(N2CCCC2)c1/C=C1\N=C(c2ccc(OC(C)C)cc2)OC1=O`, the z-score was -0.0298. Take `CSc1ccc(NC(=O)N2CCN(c3nc4ccccc4s3)CC2)cc1`: the z-score is -0.123. With `CCn1c(SCC(=O)N2CCc3ccccc32)nnc1-c1ccncc1`, the z-score came to 0.678. Compound `O=C1CC(Cc2ccccc2)C(=O)N1CCCn1ccnc1` (stereo unspecified) showed a z-score of 0.16.

For the compound `Cc1cc(NCCN2CCCCC2)n2c(nc3ccccc32)c1C#N`, the z-score is -0.518. Turning to `CCCc1cc(C(=O)Nc2sc(C(C)=O)c(C)c2C(=O)OCC)no1`, the z-score was -1.71.

On to `Cc1cc(C)n2nc(-c3ccc(F)cc3)nc2n1`, for which the z-score is -0.0637. Take `Cc1ccc(N2C(N)=C(C#N)C(c3ccsc3)C3=C2CC(C)(C)CC3=O)cc1` (stereo unspecified): the z-score was -1.49. Then `O=C(N/N=C/c1ccc(O)cc1O)/C(=C/c1ccccc1)CCO`, with -0.185.

Compound `NC(=O)C1CCN(C(c2ccccc2F)c2nnnn2Cc2ccco2)CC1` (stereo unspecified) yielded a z-score of -0.176. `Cc1nc2ccc(Cl)cc2c(-c2ccccc2)c1CC(=O)O` showed a z-score of -0.401.

As to `CC(C)CN1CN(S(=O)(=O)c2cccs2)c2nc3ccccc3nc21`, the z-score is -0.233. `CC1(C)C(=O)OC(c2cc(Br)ccc2O)C(C)(C)C1=O` (stereo unspecified) registered a z-score of -0.0999. With `CCOC(=O)c1cc(-c2ccccc2)sc1NC(=O)C(C)Sc1nnc(C)s1` (stereo unspecified), the z-score was -0.22. Consider `COc1ccc(NC(=O)C(=O)NNC(=O)c2cccs2)cc1`, for which the z-score is active: 7.11. On to `Cn1cc([N+](=O)[O-])c(C(=O)Nc2ccn(C34CC5CC(CC(C5)C3)C4)n2)n1`, for which the z-score was -0.12.

Regarding `ONC(=Nc1ccccc1)c1ccc(Cl)cc1`, the z-score was -0.273. The compound `O=C(NCc1ccc2c(c1)OCO2)c1c(O)c2cccc3c2n(c1=O)CCC3` registered a z-score of -0.541.

With `CC(=O)CSc1ncnc2c1oc1ccccc12`, the z-score is -0.216. The value for `Cc1ccccc1OCC(=O)N/N=C1\CCOc2c(C)cccc21` was 0.419; that for `Cc1ccc(N(Cc2cc3ccccc3[nH]c2=O)C(=O)c2ccco2)c(C)c1` was -1.7; that for `CCOc1c2ccc(C(=O)NCc3ccc4c(c3)OCO4)cc2nn1CC` was -0.189. In turn, `CCCCOc1ccc(C(=O)N/C(=C/C=C/c2ccccc2)C(=O)NCCCO)cc1` displayed a z-score of 0.0598. Take `COc1ccc(OC)c(C(=O)c2ccc(C(=O)O)cc2)c1`: the z-score is -0.533.

In the case of `CNC(=O)CSc1nnc(-c2cccs2)o1`, the z-score is -0.159. `COc1cccc(OC)c1C(=O)N1CCN(Cc2ccncc2)CC1`: the z-score is -0.302. In turn, `Cc1nc2sc(C(c3ccco3)N3CCc4ccccc4C3)c(O)n2n1` (stereo unspecified) gave a z-score of 0.00916.

Compound `O=C(CSc1ncccc1-c1nc2ccccc2[nH]1)N1CCc2ccccc21` came in with a z-score of -0.179. The value for `CCN(CCO)C(=O)C12CCC(C)(C(=O)C1)C2(C)C` (stereo unspecified) was -0.246.

For `Cc1cc(Cl)ccc1OCC(=O)Nc1nc(-c2cccs2)cs1`, the z-score was 0.213.
